Reference: the supplement of paper PMC11417369
Some of the results follow.

The sequences below were run on PfAP2-HC AP2 domain (GST-tagged) (assay: gcPBM binding intensity (ln(normalized median fluorescence intensity)); higher = stronger DNA binding).
Outline: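 An Agilent 4 × 180k array carrying primer-extended double-stranded 36-bp intergenic genomic probes and negative controls received GST-tagged P. falciparum DNA-binding domains expressed in E. coli, about 25 μg on average, for 1 h. The binding buffer contained 1× PBS, 1% milk, 0.2 mg/ml BSA, 0.5% salmon testes DNA and 0.03% Triton X-100. Binding intensity is the top Masliner-normalised natural-log median intensity across replicate spots of either probe orientation, read after Alexa488 anti-GST antibody staining and a 488 nm scan.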

| Sequence | gcPBM binding intensity (ln) |
| --- | --- |
| TATACATATGAAAATACACACATACATACCTATATA [CACACA_site6888] | 9.96 |
| TATTTAACACCTTATACACACTTTCTTCCTTTTTTA [CACACA_site4590] | 10.1 |
| TAATTGTACGCCAATACACACAGAATTATAATGTAG [CACACA_site6201] | 9.87 |
| ATGCACTCATTGTGCACACGCATATTACGAAAAGAA [CACACA_site2638] | 9.86 |
| AAAAAAAAAAAAAACACACACACACCCATACAAAAT [CACACA_site1446] | 11.6 |
| AAGATTTGAAAAAATACACACAATAAAAAAATAAAA [CACACA_site3281] | 10.1 |
| TATATATATATGTGTATACACACCTGATAAAGGTAT [CACACA_site2653] | 10.2 |
| AATAAATAAAAAACATGTACAAATATAATATAGCAT [XGTACX_site6429] | 10 |
| AAAAAAAAAAAGCACACACACATATGTGTATTTATA [CACACA_site6578] | 10.3 |
| ACAAAATATACAAAATGTACAAAATTTACAAAATGT [XGTACX_site3544] | 9.71 |
| TACTAGCAAATACATACACACACACCCATATACATA [CACACA_site9163] | 10.4 |
| GATATTGAGAAAGGGTGTACAAGATATTATACTATA [XGTACX_site3598] | 9.93 |
| AATAGAAAAAAATAAGTGCATTTTGGTATTCATCAT [GTGCAC_site9614] | 9.74 |
| AAATTTATATTCATTTGTACGTAATTTAAATTATAC [XGTACX_site5870] | 9.69 |
| TTTTATGTAATTATTTGTACATATGCCTCTTAAACT [XGTACX_site748] | 9.64 |
| ACATAAATAATAAAAACACACATATGTACATATATA [CACACA_site1913] | 9.96 |
| TTTGTTCATATTATTGTGCACTTAAACGTAACAAAA [GTGCAC_site9505] | 9.54 |
| TTTATATTCTTAAGTGTGCACTATATATATATATAT [GTGCAC_site9719] | 9.9 |
| ACCCTATATGTAACTACACACCGCATATTGTTTACT [CACACA_site3071] | 10.5 |
| ATGTATGTATATACTTGTACATATTCATATTAGTAT [XGTACX_site1118] | 9.62 |
| AATGTAGCATTTTATCGTACACTTAATACAAAAAAG [XGTACX_site6214] | 9.5 |
| AAAATAATATTTAATACACACACCAGTTCTGCAAAT [CACACA_site3736] | 10.9 |

| Sequence | gcPBM binding intensity (ln) |
| --- | --- |
| TAATAAGTAAAAAAATGTACCCGTTAGGTTTAATAA [XGTACX_site638] | 9.61 |
| TTTTTCTCTCTCTTATTATACAACAACAAAAAAAAA [GTGCAC_negctrl_site178] | 9.2 |
| AGAAATATATATATATATATATGTGACAATATTTGT [TGCATGCA_negctrl_site282] | 9.85 |
| TTTTTTTATTTTATTTTATTATCTTATGTATCACAA [CACACA_negctrl_site1755] | 9.61 |
| ACAAAAAGGTAATTTACACACTGCATATAGGAATAA [CACACA_site2929] | 9.9 |
| TATAATAATAATAATAGTACGTATTATTAAAAAACT [XGTACX_site10] | 9.91 |
| ATATTACACATATATGCACACATTGTAGTTATTTAT [CACACA_site8843] | 9.99 |
| CAATTACAAAAGAAATGTACTCGTAATAAATAAATA [XGTACX_site1126] | 9.77 |
| TGAAATTTTTATACATGTACAAAATTAAATATAACA [XGTACX_site7324] | 9.63 |
| TAAGTTCACAAAAAAAAAAAAAAATAAAGAAATAAA [CACACA_negctrl_site825] | 9.42 |
| AAATTATTTCCGTGTACACATAAATATATATTTTAT [CACACA_site5121] | 9.89 |
| TTATTATGCTGAGTACGTACTTATATAAGAATAGCA [XGTACX_site2955] | 9.55 |
| TATTCTATATTTCTATTTAGAAAACATCCCAGTGTG [GTGCAC_negctrl_site184] | 9.24 |
| ATGTATATAATAAGAACACACATATATTTAATTTAA [CACACA_site2941] | 10 |
| AAAAATAAAATATATACATGCATATACATATTATAT [TGCATGCA_site668] | 9.65 |
| TGTTATATTTAATATAGTACATATTATTTTATATAT [XGTACX_site70] | 9.48 |
| ATTTATATGCACCATTGTACGTTTTATAAAGTTTGG [XGTACX_site3755] | 9.64 |
| AGAAAATTAAAAAGAACACACAAATATATATAGAAT [CACACA_site3592] | 10.1 |
| ATACATATATACATACGTACTTATATACATATGTGC [XGTACX_site5268] | 9.84 |
| TATCATGTCTGTATTTCACACACGGATAATCATTTA [CACACA_site920] | 9.84 |
| ACACATATATAAATATGTACATATATATATATACAT [XGTACX_site1595] | 9.83 |
| TAATTAAATAAAAAAACACACACATATATACATATA [CACACA_site9141] | 10.2 |

| Sequence | gcPBM binding intensity (ln) |
| --- | --- |
| TCTATTAATTAATATACACACATTAGATATAAATAT [CACACA_site7241] | 9.67 |
| AAAAAAAAAAAAAAAAGTACTAATTGAATATTAAAC [XGTACX_site3383] | 9.44 |
| ACATATATATAAATATATATATATATATATATATAT [CACACA_negctrl_site874] | 9.46 |
| ATGGTAAGTATTTTATGTACATATATATTTATATAA [XGTACX_site4003] | 9.63 |
| TACACCCATAGACACACACACACGCATAAAAAAAAA [CACACA_site8428] | 11.1 |
| AAAAAACAAAAAATTACACACATATATAAATATATT [CACACA_site2317] | 9.85 |
| TAATAAAGGTGTAATACACACTATAAAAAGGAATAT [CACACA_site4756] | 10 |
| ATGTGTATATATTATTGTACATATATATATATATAT [XGTACX_site4627] | 9.82 |
| ACAAGTTAAAATATTACACACATATAAATATATATA [CACACA_site3132] | 9.8 |
| TTTTATTTACACAGTGGTACTATTAAAAATTAATGA [XGTACX_site6737] | 9.4 |
| ATAAGGTTACAACAAACACACAAAGGAATATACTCA [CACACA_site6108] | 10 |
| TTTTTTAACCTTTTATGTACACAATATTTAACATTT [XGTACX_site1170] | 9.77 |
| ACTTACACAGTTGATGGTACACTTTTATGATTTTGT [XGTACX_site3205] | 9.91 |
| TATATATAAAGGTGTACACATATATATATATCTGTA [CACACA_site5311] | 9.71 |
| ATTTCATATTATGTAACACACAACAAGATAATCAAA [CACACA_site1960] | 9.75 |
| TTTTTCAAATTTAATACACACACAAGTATATATTTA [CACACA_site9307] | 9.73 |
| TTTTTCTTTTTACATACACACAAAAAAATAAAATAT [CACACA_site581] | 9.49 |
| AAATTAATATTATGTGCATGCACAAAGAGGAACGAC [TGCATGCA_site754] | 10.1 |
| TGGTAATTTCTTTGATAAAAATTAATATGTATAAAT [XGTACX_negctrl_site152] | 9.29 |
| ATAATATGAAAACACACACACACACTAGAAAAAAAA [CACACA_site5153] | 10.9 |
| AAAAAAAAAAATATAACACACAACAAAAAAATATAT [CACACA_site1753] | 10.4 |
| ATTATTTAAATGGATGCACACATGCATTAAATAAAA [CACACA_site5831] | 9.68 |

| Sequence | gcPBM binding intensity (ln) |
| --- | --- |
| AATATTTGTTAAAGAGGTACACCATTTGGTAGGGAA [XGTACX_site2165] | 9.75 |
| TATTTTAACATTAGGTGTACATACAAAAATAAAAAT [XGTACX_site8577] | 9.76 |
| TCATACATGGTGTGTTTGCACTTGACCTATATTCAT | 9.74 |
| TCTTGAATAACAAAAAAATGTGCCAACAAAATAAAT [XGTACX_negctrl_site172] | 9.66 |
| TTTGTAAAACTATATTGTACTTTTATATATCTACAA [XGTACX_site5507] | 9.52 |
| ACAACTCGGAAGGTTTGTACTTAAAGTATAATTAAG [XGTACX_site737] | 9.44 |
| AATTGGAAGAAAAAAAAGGAAGGAAAGTTATTACAT [GTGCAC_negctrl_site74] | 9.51 |
| TATATACATGCATATACACACATATATTTATTTATA [CACACA_site6327] | 9.77 |
| TACTGAAATAATTATTTAAACGTTTTTATATGTATT [CACACA_negctrl_site487] | 9.82 |
| TTTATTTTTTCCAAGTCACACATGTTTTGATATATT [CACACA_site4946] | 9.74 |
| GTATATATGTATGTATGTACGTATATAGTTATGTAT [XGTACX_site6769] | 9.86 |
| ATAAAAAAATTAAATACATGCACATATACACATACA [TGCATGCA_site129] | 10 |
| TAAATAGATGTTTTATGTACGTATAAATAAAAAAAA [XGTACX_site3412] | 9.68 |
| TTTTTTTAAAGACATGCATGTAATATTTAAATCATT [TGCATGCA_site495] | 9.72 |
| ATTAAAAATATAGTCACACATACACCCATATATATT [CACACA_site5394] | 9.97 |
| AGGATACACAGACACACACACATATATATATATATA [CACACA_site907] | 10.8 |
| ATACAACGATATATATATATACAAATACATATTTAT [CACACA_negctrl_site268] | 9.85 |
| GATTTTTTTTTGTGGACACACAGAAATAAATTTATA [CACACA_site327] | 9.58 |
| CACATACAGATATATACACACAAATATATATACTCA [CACACA_site4591] | 10.1 |
| AATATATTTTTTCACTGTACTTTTATTATATATACA [XGTACX_site8312] | 9.96 |
| AAAAAAAATGGATGATCACACACTTCATAAAAATTG [CACACA_site2213] | 9.79 |
| ATAATTTTTTGATTTGCATGTAATAAATATATGATA [TGCATGCA_site384] | 9.39 |
